Results published in paper PMC6919601, “Identification of Plasmodium dipeptidyl aminopeptidase allosteric inhibitors by high throughput screening” (PLoS ONE, 2019).
Among all 110,000 compounds or so, about 230 (0.21%) showed an effect of 50% or more. The list shows a part of the results.

Biological target: DPAP1 (Plasmodium falciparum, UniProt Q8IIJ9)
Experiment: primary screen, percent inhibition; read by cleavage of a fluorogenic dipeptide substrate; higher = more effect of the substance
Set-up: species or system P. falciparum D10 trophozoite lysates; single well
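Further: 30 min substrate incubation versus DMSO and 10 µM JCP410 controls.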

DPAP1, sequence (Q8IIJ9 whole entry, looked up): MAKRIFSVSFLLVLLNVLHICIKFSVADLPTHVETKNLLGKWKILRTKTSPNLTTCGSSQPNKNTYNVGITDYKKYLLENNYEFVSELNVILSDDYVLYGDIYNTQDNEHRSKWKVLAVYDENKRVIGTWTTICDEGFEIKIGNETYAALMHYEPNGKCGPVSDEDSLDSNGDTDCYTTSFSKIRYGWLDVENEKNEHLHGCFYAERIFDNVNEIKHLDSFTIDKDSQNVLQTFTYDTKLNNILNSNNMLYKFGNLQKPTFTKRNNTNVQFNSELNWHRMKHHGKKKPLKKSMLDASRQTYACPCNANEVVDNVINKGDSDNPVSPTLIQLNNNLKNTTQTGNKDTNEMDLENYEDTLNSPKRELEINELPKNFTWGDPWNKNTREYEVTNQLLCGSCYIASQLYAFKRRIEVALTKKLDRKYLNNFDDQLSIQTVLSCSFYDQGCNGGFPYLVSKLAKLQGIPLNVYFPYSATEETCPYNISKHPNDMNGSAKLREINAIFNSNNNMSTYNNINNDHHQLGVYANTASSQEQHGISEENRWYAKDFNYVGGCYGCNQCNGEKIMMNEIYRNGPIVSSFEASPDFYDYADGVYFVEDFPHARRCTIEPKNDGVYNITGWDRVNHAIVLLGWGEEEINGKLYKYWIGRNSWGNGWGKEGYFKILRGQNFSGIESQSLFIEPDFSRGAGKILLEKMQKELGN

Row | SMILES | % Inhibition @ 10 uM [%]
1 | COc1ccc(C(CC(=O)O)NS(=O)(=O)c2cccc3nsnc23)cc1 (stereo not shown) | -1.24
2 | Brc1ccccc1OCCN1CCCCC1 | -0.0953
3 | CCO/C(O)=C/C1=Nc2ccccc2NC(=O)C1 | 1.74
4 | Cc1ccc(CNC(=O)c2nnc(-c3ccc4c(c3)OCO4)o2)cc1 | -1.97
5 | Cc1cccc(-n2nnnc2C2(/N=C/c3ccccc3)CCCCC2)c1 | -1.68
6 | COCCNC(=O)C1c2ccccc2C(=O)N2CCc3ccccc3C12 (stereo not shown) | -5.77
7 | O=C(CCn1c(=O)c2cccn2c2cccnc21)NCc1cccc(Cl)c1 | -6.67
8 | CC[C@H](NC(=O)[C@H](CC1(C)CCCCC1)/N=C(\C)NS(=O)(=O)c1cccnc1)C(=O)c1nc(-c2ccccc2)no1 | -1.5
9 | C=CC/N=C/c1c(NCC=C)nc2c(C)cccn2c1=O | -3.75
10 | Cc1nc2c(-c3ccc(F)cc3)c(C)nn2c(C)c1CCC(=O)NC(C)c1cccs1 (stereo not shown) | 6.1
11 | N#Cc1c(N)nc(SCC(=O)c2ccc(Cl)cc2)c(C#N)c1-c1ccco1 | -1.97
12 | COc1cc(NS(=O)(=O)c2ccc(NC(=S)NC(=O)/C=C/c3ccccc3)cc2)nc(OC)n1 | 9.31
13 | CCC(=O)n1cc(/C=C2\S/C(=N\C)N(C)C2=O)c(-c2ccccc2)n1 | 0.685
14 | CC(=O)c1c(C)[nH]c(C(=O)NCCc2ccc(Cl)cc2)c1C | -8.06
15 | COc1ccc2c(C)cc(=O)oc2c1C(C)=O | -7.86
16 | CCOC(=O)N1CCC(c2cc(O)n3nc(-c4ccccc4)cc3n2)CC1 | -2.83
17 | O=C(COc1ccc(Cl)cc1Cl)N1CCCCC1 | -4.94
18 | COC(=O)c1cc(S(=O)(=O)NCCCc2ccccc2)cn1C | -2.84
19 | COc1ccc(N(CC(N)=O)S(=O)(=O)c2ccccc2)cc1OC | 0.408
20 | CCN(CC)CCN(C)C(=O)C(O)(c1ccccc1)c1ccccc1 | 0.131
21 | COc1cc(NC(=O)C(C)C)ccc1NC(=O)C(C)C | 1.72
22 | CCc1ccc(C(=O)C2CCCCC2)cc1 | 2.8
23 | O=c1c2cccc3c(Br)ccc(c32)c2nc3ccccc3n12 | -4.5
24 | CCCNC(=O)Nc1[nH]c(C)c(C(=O)OCC)c1C | 1
25 | COc1cc(Br)cc2c1Oc1nc(-c3cccc(OC)c3OC)nc(O)c1C2 | 11.2

Row | SMILES | % Inhibition @ 10 uM [%]
26 | Clc1ccc(-c2nnc(-c3ccc4c(c3)OCO4)o2)c(Cl)c1 | 3.95
27 | COC(=O)C1=CN(Cc2ccc(OC)c(OC)c2)C=C(C(=O)OC)C1c1ccc(C)s1 | -6.93
28 | CNc1sc(S(C)(=O)=O)nc1S(=O)(=O)c1ccc(C)cc1 | -0.522
29 | NS(=O)(=O)c1ccc(CC/N=C/C2=C(O)c3ccccc3C2=O)cc1 | 7.73
30 | Cc1ccc(S(=O)(=O)N2CCSC2c2ccc(Cl)cc2)cc1 (stereo not shown) | 3.82
31 | Cc1cc(C)n(C(=O)c2sc3cc(F)ccc3c2Cl)n1 | 2.46
32 | Cc1sc2ncnc(SCC(=O)O)c2c1C | 0.708
33 | Cc1nc2scc(C)n2c(=O)c1S(=O)(=O)NC1CCCCCCC1 | 72.2
34 | COc1ccc(CC/N=c2\cc(O)oc3ccccc23)cc1OC | 0.189
35 | COC(=O)C1=C(C)N(CC2CCCO2)C(=O)/C1=C\c1ccc(C)cc1 (stereo not shown) | 1.81
36 | CC(C)(C)NCCCCOc1ccccc1 | 3.42
37 | CC(C)(C)c1ccc(/C=N/n2cnnc2)cc1 | -3.71
38 | Cc1n[nH]c(SCc2cccc(CSc3n[nH]c(C)n3)c2)n1 | 1.63
39 | CC(C)C[C@H](NC(=O)c1cccc(OC(F)F)c1)C(=O)NCC#N | -4.72
40 | COc1ccc(C(=O)Nc2ccc(Cl)cc2C(=O)NCc2cccnc2)cc1 | -8.16
41 | CCN(CC(=O)Nc1sc2c(c1C(=O)Nc1ccc(Br)cc1)CCC2)C(C)=O | 3.53
42 | CC(C)(C)OC(=O)Nc1cccc(C(=O)N[C@@H](CC2CCCCC2)C(=O)NCC#N)c1 | -3.49
43 | COc1ccc(N(CC(=O)Nc2ccccc2)S(C)(=O)=O)cc1Cl | -1.57
44 | CCCN(CCC)CCCNC(=O)CNC(=O)c1cccs1 | 2.05
45 | Cc1nc2sc3c(c2c2ncnn12)CCCC3 | -3.36
46 | Cc1cccc(NC(=O)c2cccc(Br)c2)c1 | 1.63
47 | COc1cc(NS(=O)(=O)c2ccc(NC(=O)Cc3ccccc3)cc2)nc(OC)n1 | -1.61
48 | S=C1Nc2ccccc2Sc2ccc(Cl)cc21 | 4.44
49 | CC1CCCCC1NC(=O)c1nn(C)c2c1CSc1ccccc1-2 (stereo not shown) | 4.86
50 | Oc1ccc(Br)cc1/C=C/c1nc(O)c2ccccc2n1 | 0.0265

Row | SMILES | % Inhibition @ 10 uM [%]
51 | COc1ccc(C(=O)n2nc(-c3ccccc3)nc2NCc2ccccc2Cl)cc1OC | -2.91
52 | COC(=O)C1=CN(C)C=C(C(=O)OC)C1c1ccc(OCc2ccccc2)cc1 | 4.99
53 | CCS(=O)(=O)c1nc(S(=O)(=O)c2ccc(C)cc2)c(NCCc2c[nH]c3ccccc23)s1 | 5.84
54 | CC1C(=O)C(C)C(c2ccccc2)NC1c1ccccc1 (stereo not shown) | 1.54
55 | Cc1ccccc1-c1cc(C(=O)Nc2ccc(C(N)=O)cc2)c2ccccc2n1 | 8.37
56 | COc1ccccc1CNS(=O)(=O)c1csc(C(N)=O)c1 | -0.822
57 | CCOc1ccccc1CNCc1c(C(=O)O)c(C)n(Cc2cccc(C)c2)c1C | -7.36
58 | O=C(NCc1cccc(CNC(=O)C(=O)NCc2ccco2)c1)C(=O)NCc1ccco1 | -0.48
59 | Cn1c(=O)c2c(-c3ccccc3)n(C(C)(C)C)cc2n(C)c1=O | 5.52
60 | N#CCNC(=O)C1(NC(=O)c2cccc(-c3ccccc3)c2)CCCCC1 | -6.46
61 | COc1ccc(C(=O)Nc2cccc(Br)c2)cc1S(=O)(=O)N1CCOCC1 | 2.43
62 | CCN(CC)CC#CC(C)(OC(C)=O)c1ccccc1 (stereo not shown) | 2.23
63 | COc1ccc2nc3sc(C(=O)NCc4ccccn4)cc3cc2c1 | 3.85
64 | Cc1cc(C)c2c3c(sc2n1)C(=O)N(Cc1ccccc1)CN3 | -0.808
65 | CCCCN(C)Cc1cc(O)ccc1[N+](=O)[O-] | -7.93
66 | COc1cc(-c2nn3c(Cn4nnc5ccccc54)nnc3s2)cc(OC)c1OC | 35.9
67 | O=C(CN1Cc2ccccc2C1=O)NCCc1ccc(Cl)cc1 | 3.62
68 | COc1ccc(C2C3=C(CCCC3=O)N=c3s/c(=C/c4ccc5ccncc5c4)c(=O)n32)cc1 (stereo not shown) | 2.03
69 | COc1ccc(OC)c(-c2cc(C(=O)NCc3ccco3)no2)c1 | -5.09
70 | CCCCCCCCOc1ccc(/C=C(\C#N)c2nc(-c3ccc(C)cc3C)cs2)cc1 | 1.08
71 | COc1ccc(CN2C(=O)c3oc4ccccc4c(=O)c3C2c2cccc(O)c2)cc1 (stereo not shown) | -6.94
72 | CC(C)CNc1nc2c(c(=O)n(Cc3ccccc3)c(=O)n2C)n1Cc1ccccc1 | 0.279
73 | COCCn1c(C)cc(C(=O)CSc2nc(C)cc(C)c2C#N)c1C | -4.6
74 | CC1(C)Cc2c(sc3[nH]c(=S)n(Cc4ccccc4)c(=O)c23)CO1 | 37.7
75 | Cc1ccc(S(=O)(=O)N(Cc2ccc(Cl)cc2)c2ccccc2C(=O)N2CCOCC2)cc1 | 4.88

Row | SMILES | % Inhibition @ 10 uM [%]
76 | Cc1c2cnn(CC(=O)NCCc3ccc(Cl)cc3)c(=O)c2c(C)n1Cc1ccccc1 | 5.91
77 | CCC1CCc2c(sc(NC(=O)c3ccccc3C)c2C(N)=O)C1 (stereo not shown) | -3.12
78 | CN(CCCNC(=O)C1CCCN(S(=O)(=O)c2cccc3nsnc23)C1)Cc1ccccc1 (stereo not shown) | -0.499
79 | CCCn1c2ccccc2c2cnn(CC(=O)N(CCCN3CCOCC3)Cc3ccco3)c(=O)c21 | 8.64
80 | CC(C)CCCN1C(=O)NC(=O)/C(=C\c2ccc(Cl)cc2Cl)C1=O | -5.96
81 | COC(=O)C1=C(C)N(CCC2=CCCCC2)C(=O)/C1=C\c1ccccc1Cl | 1.91
82 | CCCNC(=O)/C(=C/c1cn(CC)c2ccccc12)NC(=O)c1ccco1 | -1.74
83 | OCc1cn(Cc2ccccc2Cl)c2ccccc12 | 2.1
84 | CCCCOC(=O)NC(=O)c1coc2ccc(Br)cc2c1=O | -8.76
85 | COc1ccc(C2=C(C)C(NC(C)C34CC5CC(CC(C5)C3)C4)=NS2(=O)=O)cc1 (stereo not shown) | -2.85
86 | COc1cc2c(cc1OC)C(C(C)C)=NC(C)(C)C2 | -0.992
87 | Cc1ccc2onc(CNC(=O)N3CCOCC3)c2c1 | 0.292
88 | O=C(NCCO)c1ccc2snnc2c1 | -3.52
89 | CCCS(=O)(=O)c1c(S(=O)(=O)CCC)c2ccccn2c1C(=O)OC | -7.57
90 | O=C(Nc1ccn(Cc2ccccc2Cl)n1)C1CCC1 | -1.96
91 | Oc1nc2ccc(Oc3ccc4nc(O)c(O)nc4c3)cc2nc1O | -7.6
92 | Cc1ccc(/C(O)=C(\C#N)c2nc(O)c3ccccc3n2)cc1 | 15.8
93 | Cc1ccc(CCNC(=O)CCN2N=C(c3ccccc3)CCC2=O)cc1 | -0.0542
94 | N#Cc1c(Nc2ccccc2)sc(C(=O)c2ccc(F)cc2)c1N | -4.43
95 | CCOc1ccc(CSc2nnnn2-c2ccccc2F)cc1OCC | -4.35
96 | C=Cc1ccc(Cn2c(C(=O)OC)cc3sccc32)cc1 | -5.2
97 | CCc1nc2nc(C)c(NS(=O)(=O)c3ccc(CC(C)C)cc3)c(O)n2n1 | -4.47
98 | CCOc1cccc(NC(=O)C2CC(=O)N(c3ccc(F)cc3)C2)c1 (stereo not shown) | 11.1
99 | Cc1nnc2c(NC3CCN(Cc4ccccc4)CC3)nc3ccccc3n12 | -3.8
100 | COCCCNC1=NS(=O)(=O)C(c2ccc(C)cc2)=C1C | -4.68
